Experimental data as given in patent US20250049896A1 (Regeneron, published 2025).

B1: 69323 scFv (VK-VH) (scFv)
scFv: [about 100 residues left out here]GGGGSGGGGSGGGGSEVQLVESGGGLVQPGRSLRLSCAASGFTFDDYAMHWVRQAPGKGLEWVSGISWNSGYIGYADSVKGRFTISRDNAENSLHLQMNSLRAEDTALYYCARGGSTLVRGVKGGYYGMDVWGQGTTVTVSS
notes: CHO supernatant; Vk-3xG4S-Vh
B2: 12845B scFv (VK-VH) (scFv)
scFv: [about 100 residues left out here]TRLEIKGGGGSGGGGSGGGGSEVQLVESGGGLVQPGGSLRLSCAASGFTVSNYEMNWVRQAPGKGLEWVSYISSSTSNIYYADSVKGRFTISRDNAENSLYLQMNSLRVEDTAVYYCVRDGIVVVPVGRGYYYYGLDVWGQGTTVTVSS
notes: CHO supernatant; Vk-3xG4S-Vh
B3: 12843B scFv (VK-VH) (scFv)
scFv: [about 100 residues left out here]TRLEIKGGGGSGGGGSGGGGSEVQLVESGGGLVQPGGSLRLSCAASGFTFNIFEMNWVRQAPGKGLEWISYISSRGTTTYYADSVRGRFTISRDNAKNSLYLQMNSLRAEDTAVYYCARDYEATIPFDFWGQGTLVTVSS
notes: CHO supernatant; Vk-3xG4S-Vh
B4: 12816B scFv (VH-VK) (scFv)
chain: QVQLVESGGGLVKPGGSLRLSCAASGFTFSDYYMNWIRQAPGKGLEWVSYISSSGTTIYYADSVKGRFTISRDNAKKSLYLEMNSLRAEDTAVYYCAREGYGNDYYYYGIDVWGQGTTVTVSS[about 120 residues left out here]
B5: 69261 scFv (VH-VK) (scFv)
chain: QVQLVESGGGLVKPGGSLRLSCAASGFTFSVYYMNWIRQAPGKGLEWVSYISSSGSTIYYADSVKGRFTISRDNAKNSLYLQMNSLRAEDTAVYYCGREGYSGTYSYYGMDVWGQGTTVTVSS[about 120 residues left out here]
B6: 12847B scFv (VH-VK) (scFv)
scFv: EVQLVESGGGLVQPGRSLRLSCAASGFTFDDYAMNWVRQAPGKGLEWVSGISWSSGSMDYADSVKGRFTISRDNAKNSLYLQMNSLRTEDTALYYCAKAREVGDYYGMDVWGQGTTVTVSSGGGGSGGGGSGGGGS[about 100 residues left out here]
notes: CHO supernatant
B7: 12844B scFv (VK-VH) (scFv)
scFv: [about 100 residues left out here]TRLEIKGGGGSGGGGSGGGGSEVQLVESGGSVVRPGGSLRLSCEASGFTFDDYGMSWVRQDPGKGLEWVSGINWNGDRTNYADSVKGRFIISRDNAKNSVYLQMNSLRAEDSALYHCARDQGLGVAATLDYWGQGTLVTVSS
notes: CHO supernatant; Vk-3xG4S-Vh
B8: 12847B scFv (VK-VH) (scFv)
scFv: [about 100 residues left out here]TRLEIKGGGGSGGGGSGGGGSEVQLVESGGGLVQPGRSLRLSCAASGFTFDDYAMNWVRQAPGKGLEWVSGISWSSGSMDYADSVKGRFTISRDNAKNSLYLQMNSLRTEDTALYYCAKAREVGDYYGMDVWGQGTTVTVSS
notes: CHO supernatant; Vk-3xG4S-Vh
B9: 12834B scFv (VH-VK) (scFv)
chain: QVQLVQSGAEVKKPGASVKVSCKASGYTFTSYGISWVRQAPGQGLEWMGWISVYHGNTNYAQKFQGRVTMTTDTSTSTAYMELRSLRSDDTAVYYCAREGYYDFWSGYYPFDYWGQGTLVTVSS[about 100 residues left out here]
B10: 12839B scFv (VK-VH) (scFv)
scFv: [about 100 residues left out here]TRLEIKGGGGSGGGGSGGGGSQVQLVESGGGVVQPGRSLRLSCAASGFPFSNYVMYWVRQAPGKGLEWVALIFFDGKKNYHADSVKGRFTITRDNSKNMLYLQMNSLRPEDAAVYYCAKIHCPNGVCYKGYYGMDVWGQGTTVTVSS
notes: CHO supernatant; Vk-3xG4S-Vh
B11: 12835B scFv (VK-VH) (scFv)
scFv: [about 100 residues left out here]TRLEIKGGGGSGGGGSGGGGSEVQLVESGGGLIQPGGSLRLSCEASGFTFRNYEMNWVRQAPGKGLEWVSYISSSGNMKDYAESVKGRFTISRDNVKNSLQLQMNSLRVEDTAVYYCARDEFPYGMDVWGQGTTVTVSS
notes: CHO supernatant; Vk-3xG4S-Vh
B12: 12833B scFv (VK-VH) (scFv)
scFv: [about 100 residues left out here]TRLEIKGGGGSGGGGSGGGGSQVQLVESGGGVVQPGRSLRLSCAASGFTFSSFGMHWVRQAPGKGLEWVIFISYDGSDKYYADSVKGRFAISRDSSKNTLYLQMNSLRAEDTAVYYCAKENGILTDSYGMDVWGQGTTVTVSS
notes: CHO supernatant; Vk-3xG4S-Vh
B13: 12841B scFv (VK-VH) (scFv)
scFv: [about 100 residues left out here]TRLEIKGGGGSGGGGSGGGGSEVQLVESGGGLVQPGGSLRLSCAASGFTFSNYWMNWVRQAPGKGLEWVANIKEDGGKKLYVDSVKGRFTISRDNAKNSLFLQMNSLRAEDTAVYYCAREDTTLVVDYYYYGMDVWGQGTTVTVSS
notes: CHO supernatant; Vk-3xG4S-Vh
B14: 12816B scFv (VK-VH) (scFv)
scFv: [about 120 residues left out here]GGGGSGGGGSGGGGSQVQLVESGGGLVKPGGSLRLSCAASGFTFSDYYMNWIRQAPGKGLEWVSYISSSGTTIYYADSVKGRFTISRDNAKKSLYLEMNSLRAEDTAVYYCAREGYGNDYYYYGIDVWGQGTTVTVSS
notes: CHO supernatant; Vk-3xG4S-Vh
B15: 69261 scFv (VK-VH) (scFv)
scFv: [about 120 residues left out here]GGGGSGGGGSGGGGSQVQLVESGGGLVKPGGSLRLSCAASGFTFSVYYMNWIRQAPGKGLEWVSYISSSGSTIYYADSVKGRFTISRDNAKNSLYLQMNSLRAEDTAVYYCGREGYSGTYSYYGMDVWGQGTTVTVSS
notes: CHO supernatant; Vk-3xG4S-Vh
B16: 12844B scFv (VH-VK) (scFv)
chain: EVQLVESGGSVVRPGGSLRLSCEASGFTFDDYGMSWVRQDPGKGLEWVSGINWNGDRTNYADSVKGRFIISRDNAKNSVYLQMNSLRAEDSALYHCARDQGLGVAATLDYWGQGTLVTVSS[about 100 residues left out here]
B17: 12833B scFv (VH-VK) (scFv)
chain: QVQLVESGGGVVQPGRSLRLSCAASGFTFSSFGMHWVRQAPGKGLEWVIFISYDGSDKYYADSVKGRFAISRDSSKNTLYLQMNSLRAEDTAVYYCAKENGILTDSYGMDVWGQGTTVTVSS[about 100 residues left out here]
B18: 12834B scFv (VK-VH) (scFv)
scFv: [about 100 residues left out here]TRLEIKGGGGSGGGGSGGGGSQVQLVQSGAEVKKPGASVKVSCKASGYTFTSYGISWVRQAPGQGLEWMGWISVYHGNTNYAQKFQGRVTMTTDTSTSTAYMELRSLRSDDTAVYYCAREGYYDFWSGYYPFDYWGQGTLVTVSS
notes: CHO supernatant; Vk-3xG4S-Vh

target: T1, Hmm-hTFRC (REGN2431), monomeric human transferrin receptor ectodomain with N-terminal hexahistidine-myc-myc … (human, UniProt P02786); experiment: blocking ELISA, supernatant; Hmm-hTFRC binding to immobilized human holo-Tf
T1 construct: also called hmm.hTfR(C89-F763); His-myc-myc-hTFRC ecto
T1 sequence (P02786 other isoform, or with tags, fused parts or gaps): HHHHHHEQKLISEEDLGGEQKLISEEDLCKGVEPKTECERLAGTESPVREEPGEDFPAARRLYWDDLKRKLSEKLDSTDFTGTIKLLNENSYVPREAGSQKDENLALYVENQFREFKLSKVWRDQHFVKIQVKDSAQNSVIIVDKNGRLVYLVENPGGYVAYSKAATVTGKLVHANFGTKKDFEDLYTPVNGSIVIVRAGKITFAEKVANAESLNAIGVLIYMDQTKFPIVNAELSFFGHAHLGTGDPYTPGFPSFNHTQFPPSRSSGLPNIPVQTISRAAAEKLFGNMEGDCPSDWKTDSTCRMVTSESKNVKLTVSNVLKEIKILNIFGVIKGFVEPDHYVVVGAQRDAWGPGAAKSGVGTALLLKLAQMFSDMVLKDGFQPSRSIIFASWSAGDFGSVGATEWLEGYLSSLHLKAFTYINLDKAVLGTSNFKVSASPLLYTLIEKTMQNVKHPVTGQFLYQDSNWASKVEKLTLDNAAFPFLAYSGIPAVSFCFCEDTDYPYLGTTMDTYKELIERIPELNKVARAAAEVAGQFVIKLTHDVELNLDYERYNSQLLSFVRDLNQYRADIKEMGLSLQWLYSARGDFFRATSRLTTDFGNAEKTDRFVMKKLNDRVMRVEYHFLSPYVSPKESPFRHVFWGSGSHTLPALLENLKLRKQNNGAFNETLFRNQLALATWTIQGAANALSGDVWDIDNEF
Procedure: In the blocking assay, the anti-human Transferrin goat IgG polyclonal antibody (anti-hTf pAb) was passively absorbed at a concentration of 2 micrograms/mL in PBS on a 96-well microtiter plate overnight at 4° C. […] To the same plate, human holo-Tf was then added at a concentration of 1 micrograms/mL in PBS+0.5% BSA for 2 hours at room temperature. […] After a 1-hour incubation, the mixtures were transferred to the human holo-Tf microtiter plates. […] The plates were developed using TMB substrate solution according to the manufacturer's recommended procedure and absorbance at 450 nm was measured on a Victor™ Multilabel Plate Reader.
The ability of the anti-TfR antibody to block human TFRC binding to human holo-Tf was evaluated using an ELISA-based blocking assay.

| % Blocking [%] | Binder |
| --- | --- |
| 17 | B1 |
| 3 | B2 |
| 8 | B3 |
| 16 | B4 |
| 19 | B5 |
| 11 | B6 |
| 10 | B7 |
| 13 | B8 |
| -3 | B9 |
| 6 | B10 |
| 37 | B11 |
| 40 | B12 |
| 1 | B13 |
| 14 | B14 |
| 16 | B15 |
| 12 | B16 |
| 22 | B17 |
| 11 | B18 |
